# Data reported in PubChem BioAssay AID686979 (National Center for Advancing Translational Sciences (NCATS), 2013).
# In all, about 420,000 compounds went through this assay and about 50,000 (12%) were called active. This list was built around the results that the source calls inconclusive (neither active nor inactive); the mix of calls is not that of the screen. Calls come from the whole dose curve; as a rule, active = well fitted inhibition curve with a large enough effect; inconclusive = small, poorly fitted or top-dose-only effect; inactive = flat fitted curve, though single readings scatter. No potency is given beside an inconclusive call; the fits are too rough.
# Assay: qHTS for Inhibitors of human tyrosyl-DNA phosphodiesterase 1 (TDP1): qHTS in cells in presence of CPT; note: nearly all actives have a fitted effect of over 55% in size
# Conditions: chicken DT40 Tdp1-/-;hTDP1 cells + 20 nM CPT, ATP luminescence, 48 h; activity change, negative = growth inhibition: at 46.2 µM (top of the series)
# Outline: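 Cell growth measured by CellTiter-Glo luminescence after a minimum 48 h, 37 C compound exposure with 20 nM CPT in Tdp1-knockout DT40 cells stably expressing hTDP1, seeded 400/well; qHTS titration format.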
# % is set by controls: 0 for no effect and ±100 for the full control effect; potency is the fitted concentration of half-maximal effect; tags give direction and shape of the fitted curve.
SMILES,Potency,"activity change, negative = growth inhibition"
Cc1[nH]c2ccccc2c1/C=C/c1nccc2ccccc12,"inconclusive [inhibitor, full curve, poor fit]",–
COc1ccc(OC)c(S(=O)(=O)N2CCN(C(=O)CCc3ccccc3)CC2)c1,–,inactive: -2.83%
Cc1nn(-c2ccccc2)c2c1C(c1ccccc1)C(C#N)=C(N)O2 (centres undefined),"inconclusive [inhibitor, single point]",–
C=C1C(=O)[C@]23C[C@H]1CCC2[C@@]1(C)C(C[C@@H]3O)[C@](C)(C(=O)OC)CC[C@@H]1OC(C)=O (some centres undefined),active: 0.82 µM,–
CN(C)S(=O)(=O)c1cc(NC(=O)C2=COCCO2)ccc1Cl,–,inactive: -6.46%
COc1ccccc1CNc1ncnc2ccc(-c3ccccc3OC)cc12,"inconclusive [inhibitor, single point]",–
CC(=O)Oc1ccc(OC(C)=O)c(SCCCCCN2CCOCC2)c1,"inconclusive [inhibitor, single point]",–
Cc1cnc(C=O)c2cccc([N+](=O)[O-])c12,active: 5.8 µM,–
COc1ccc(C2C=CC(=O)CC2)c(OC)c1 (centres undefined),"inconclusive [inhibitor, single point]",–
Cc1c(C(=O)N(Cc2ccccc2)C(C)C)cnn1-c1ccccc1,"inconclusive [inhibitor, single point]",–
CN1CCN(C(=O)c2ccc3c(c2)NC(=O)/C(=C/c2ccccc2)S3)CC1,"inconclusive [inhibitor, single point]",–
COc1cc(/C=N/Nc2nn3cnnc3c3ccccc23)ccc1O,active: 7.31 µM,–
CCOc1cc(CNCCCN2CCOCC2)cc(Br)c1OCc1ccccc1Cl,active: 3.66 µM,–
COC(=O)c1ccc(C(=O)OC)c(NC(=O)c2cc3nc(-c4ccc(C)cc4)cc(C(F)(F)F)n3n2)c1,–,inactive: -3.73%
COc1ccccc1OCCOc1ccc(/C=C2\C(=N)N3N=C(S(C)(=O)=O)SC3=NC2=O)cc1,"inconclusive [inhibitor, single point]",–
CCCn1cnc2cc(NCc3ccccc3OCC)ccc21,"inconclusive [inhibitor, single point]",–
CCn1c(C(=O)NCc2ccccc2Br)cc2oc3ccccc3c21,active: 20.6 µM,–
CC(=O)NNC(=O)CCn1nnc(-c2ccc(Cl)cc2)n1,–,inactive: 8.47%
CN(C)CC#CCOC(c1ccccc1)c1ccccc1,"inconclusive [inhibitor, single point]",–
COc1ccc(C2c3ccc4ccccc4c3Oc3ncn(CCCO)c(=N)c32)cc1 (centres undefined),"inconclusive [inhibitor, single point]",–
CC1(c2ccccc2)NC(=O)N(CC(=O)Nc2ccc(S(=O)(=O)NC3=NCCCCC3)cc2)C1=O (centres undefined),–,inactive: -2.36%
COc1ccc(S(=O)(=O)N2CCC(C(=O)NCc3cccnc3)CC2)cc1Cl,–,inactive: 1.85%
COCCCNC(=O)c1sc2nc(C)c(C(=O)Nc3ccc(C)cc3C)c(-c3ccccc3Cl)c2c1N,"inconclusive [inhibitor, partial curve]",–
CCc1ccc2oc(-c3ccc(NC(=O)c4cc5ccccc5o4)cc3)nc2c1,–,inactive: -21.5%
COc1ccc(CCNC(=O)c2cnn3ccccc23)c(OC)c1OC,"inconclusive [inhibitor, single point]",–

SMILES,Potency,"activity change, negative = growth inhibition"
NC(Cc1ccc(Cl)cc1)c1csc(NC(=O)Nc2ccccc2)n1 (centres undefined),active: 13 µM,–
COc1ccc(-c2cnc(OC(C)(C)C)nc2OC(C)(C)C)cc1OC,"inconclusive [inhibitor, single point]",–
CCOC(=O)C1CCN(c2ccccc2CN2CCN(c3ccccc3OCC)CC2)CC1,"inconclusive [inhibitor, single point]",–
CC(=O)N1c2ccc(S(=O)(=O)NCc3ccco3)cc2CC1C (centres undefined),–,inactive: -8.16%
CC(=O)c1ccc(NC(=O)CCOc2cc(C)ccc2C)cc1,"inconclusive [inhibitor, full curve]",–
COc1ccc(C(=O)NCc2ccc3c(c2)CCN3C(=O)c2ccccc2)cc1,active: 23.1 µM,–
COc1ccc(Br)cc1CN1CCN(C(=O)c2ccc(F)cc2)CC1,"inconclusive [inhibitor, single point]",–
O=C(COc1ccc(F)cc1Br)N1CCN(S(=O)(=O)/C=C/c2ccccc2)CC1,"inconclusive [inhibitor, single point]",–
Cc1ccc(S(=O)(=O)CCC(=O)Nc2nccs2)cc1,–,inactive: -9.81%
CCOC(=O)C1CCN(C(=O)c2ccccc2)C(CC)C1=O (centres undefined),–,inactive: -14.4%
Fc1ccc(-c2nc3ccc(Br)cn3c2Cc2cccc(Cl)c2)cc1,"inconclusive [inhibitor, single point]",–
Cc1ccc(O)c(C2=NNC(c3ccc(Cl)cc3)C2)c1 (centres undefined),"inconclusive [inhibitor, single point]",–
COCCn1c(C)cc(C(=O)CN2C(=O)NC3(CCCCCCC3)C2=O)c1C,"inconclusive [inhibitor, single point]",–
COc1ccc(/C=N/NC(=O)c2cccc3ccccc23)c(OC)c1OC,"inconclusive [inhibitor, single point]",–
O=C(Nc1ccc2c(c1)OCCO2)c1ccc(Br)s1,"inconclusive [inhibitor, single point]",–
CSc1nc(Nc2ccc(Cl)cc2)c(C#N)c(=O)[nH]1,–,inactive: 0.643%
Cc1ccc(C)c(NC(=O)CN(C)C(=O)C2COc3ccccc3O2)c1 (centres undefined),–,inactive: -16.3%
O=C(CCSCc1cnn(-c2ccccc2)c1-n1cccc1)NCc1ccccc1Cl,active: 18.4 µM,–
c1ccc(-n2nnc3c(N4CCOCC4)ncnc32)cc1,–,inactive: -10.7%
C/C(CCc1ccc2c(c1)OCO2)=N\N=C1\NC(=O)CC(C(=O)Nc2ccccc2F)S1 (centres undefined),–,inactive: -8.72%
COc1ccc(/C=C2\SC(=O)N(CCC(=O)N3CCCCC3CCO)C2=O)cc1 (centres undefined),"inconclusive [inhibitor, partial curve]",–
Cc1cc(Br)ccc1NC(=O)CN(C)C(=O)C1CCN(C(=O)c2ccc(Cl)cc2)CC1,"inconclusive [inhibitor, partial curve]",–
COc1ccc(NS(=O)(=O)c2ccc(-c3cnc(C4CC4)o3)cc2)cc1Cl,active: 0.651 µM,–
O=C(CN1C(=O)NC2(CCCc3ccccc32)C1=O)c1ccc(Br)cc1 (centres undefined),"inconclusive [inhibitor, single point]",–
NC(=O)c1ccsc1NC(=O)CCc1ccccc1,"inconclusive [inhibitor, partial curve]",–

SMILES,Potency,"activity change, negative = growth inhibition"
Cc1nnc(C)n1/N=C/c1cccn1C,"inconclusive [inhibitor, single point]",–
Cc1ccccc1Cn1nc(C)c(NC(=O)c2noc3c2CCCC3)c1C,"inconclusive [inhibitor, single point]",–
CCOc1ccc(OCCCC(=O)Nc2cc(S(=O)(=O)N3CCOCC3)ccc2N2CCOCC2)cc1,"inconclusive [inhibitor, single point]",–
c1ccc(CSc2ncnc3sccc23)cc1,–,inactive: 3.15%
O=C(/C=C/c1ccco1)Nc1nc(-c2ccccn2)cs1,active: 7.31 µM,–
COC(=O)[C@H]1C[C@H](O)CN1S(=O)(=O)c1ccc(Br)cc1F,–,inactive: -4.29%
Cc1nc(-c2ccc(C(=O)N3CCCC3)cc2)cs1,–,inactive: -0.707%
O=C(NC(c1ccccc1)c1ccccc1)c1cccc(S(=O)(=O)NCc2ccccc2)c1,"inconclusive [inhibitor, single point]",–
COc1ccc(CN(C)C(=S)Nc2ccc(OC(F)F)cc2)cc1,–,inactive: -17.4%
CC(=O)c1cccc(NC(=S)N2CCN(CCN3C(=O)c4cccc5cccc(c45)C3=O)CC2)c1,"inconclusive [inhibitor, partial curve]",–
Cc1cccc(CCN(Cc2cc3cccc(C)c3[nH]c2=O)C(=O)N2CCOCC2)c1,"inconclusive [inhibitor, partial curve]",–
Fc1ccc(C2c3[nH]c4ccccc4c3CCN2Cc2ccoc2)cc1 (centres undefined),"inconclusive [inhibitor, single point]",–
CC1CCC(NC(=O)CSc2nnc(-c3cccnc3)o2)CC1 (centres undefined),–,inactive: -16%
Cc1ccc(C(=O)NC(=S)NNC(=O)c2ccc([N+](=O)[O-])cc2)cc1,"inconclusive [inhibitor, single point]",–
O=C(Nc1ccc2c(c1)OCO2)c1cc(C2CCCCN2S(=O)(=O)c2cccs2)on1 (centres undefined),"inconclusive [inhibitor, single point]",–
COc1cccc(OCC(=O)Nc2c3c(nn2-c2ccccc2)CS(=O)(=O)C3)c1,–,inactive: -25.6%
O=S(=O)(c1ccccc1)N1CCC2(CCN(c3ccccc3)CC2)CC1,"inconclusive [inhibitor, single point]",–
COC(=O)c1cccc(NC(=O)c2cccc(OC)c2)c1,"inconclusive [inhibitor, single point]",–
COc1ccc(C(CNC(=O)c2oc3cc(C)c(Cl)cc3c2C)N2CCCCC2)cc1 (centres undefined),active: 13 µM,–
N#CCc1nc2c3c4c(sc3ncn2n1)CCCC4,–,inactive: -3.62%
COc1ccc(NC(=O)CCCc2nc3ccccc3c(=O)[nH]2)cc1Cl,"inconclusive [inhibitor, single point]",–
COc1ccccc1CN1CCNC(=O)C1CC(=O)O (centres undefined),–,inactive: 6.41%
CC(=C/c1ccccc1)/C=N/NC(=O)CSc1nc(C)cc(C)n1,"inconclusive [inhibitor, partial curve]",–
CC1CCN(S(=O)(=O)c2ccc3nc(NCc4ccccc4)ccc3c2)CC1,active: 10.3 µM,–
